Among the data in the antibiotic and cytotoxicity screens of Wong et al. (2023) are cytotoxicity call and growth inhibition call values, retold here.

The other results are listed elsewhere or left out.

Experiment [1] deals with HSkMC (human skeletal muscle cells). In words: cytotoxicity call (relative viability < 0.9). Particulars: 10 µM.
The subject of experiment [2] is HepG2. Put plainly: cytotoxicity call (relative viability < 0.9). To be noted: 10 µM.
In experiment [3] the test system is S. aureus RN4220. Put plainly: growth inhibition call (relative growth <= 0.2). Particulars: 50 µM.

With `C[C@@H]1CN([C@H](C)CO)C(=O)c2cc(NC(=O)C3CCCCC3)ccc2O[C@@H](C)CCCCO[C@@H]1CN(C)C(=O)Nc1cccc2ccccc12`, the cytotoxicity call in experiment [1] and in experiment [2] was “active” throughout. For the same compound, the growth inhibition call in experiment [3] is “inactive”.

Take `Cc1ccc(S(=O)(=O)Nc2ccc3c(c2)C(=O)N([C@@H](C)CO)C[C@@H](C)[C@@H](CN(C)S(=O)(=O)c2ccc(C)cc2)OCCCC[C@@H](C)O3)cc1`: the cytotoxicity call in experiment [1] and in experiment [2] was “inactive” throughout. In addition, the growth inhibition call in experiment [3] is “inactive”.

As for `COc1ccccc1NC(=O)N(C)C[C@H]1Oc2ncc(Br)cc2C(=O)N([C@H](C)CO)C[C@H]1C`, the cytotoxicity call in experiment [1] and in experiment [2] was “inactive” each time. In addition, the growth inhibition call in experiment [3] is “inactive”.

Turning to `O=C(CCc1cn(CC(=O)N2CCC3(CC2)C(=O)NCN3c2ccccc2)nn1)NO`, the cytotoxicity call in experiment [1] was “inactive”. Moreover, in experiment [2], the cytotoxicity call is “active”. Moreover, the growth inhibition call in experiment [3] was “active”.

Consider `Cc1ccc(S(=O)(=O)Nc2ccc3c(c2)C(=O)N([C@H](C)CO)C[C@@H](C)[C@@H](CN(C)C(=O)Nc2ccc(C(F)(F)F)cc2)O3)cc1`, for which the cytotoxicity call in experiment [1] and in experiment [2] was “inactive” each time. The growth inhibition call in experiment [3] was “inactive”.

Regarding `CC(C)NC(=O)Nc1ccc2c(c1)C(=O)N([C@@H](C)CO)C[C@H](C)[C@H](CN(C)C(=O)NC1CCCCC1)O2`, the cytotoxicity call in experiment [1] and in experiment [2] was “inactive” throughout. In addition, the growth inhibition call in experiment [3] is “inactive”.

As for `CS(=O)(=O)CCC#N`, the cytotoxicity call in experiment [1] and in experiment [2] was “inactive” throughout. In addition, the growth inhibition call in experiment [3] is “inactive”.

As to `CC(C)(C)[S@@](=O)N1Cc2cc(C(=O)N3CCCCC3)nc(-c3cccc(-c4ccc(F)cc4)c3)c2[C@H]1CCO`, the cytotoxicity call in experiment [1] and in experiment [2] was “inactive” in each case. The growth inhibition call in experiment [3] was “inactive”.

As to `C[C@@H]1CN([C@@H](C)CO)C(=O)c2cc(NC(=O)c3ccncc3)ccc2O[C@@H](C)CCCCO[C@@H]1CN(C)C(=O)NC1CCCCC1`, the cytotoxicity call in experiment [1] is “inactive”. In addition, the cytotoxicity call in experiment [2] was “active”. In addition, the growth inhibition call in experiment [3] was “inactive”.

On to `O=C(C[C@H]1C[C@@H]2c3cc(NS(=O)(=O)c4ccc(F)cc4)ccc3O[C@@H]2[C@H](CO)O1)N1CCCCC1`, for which the cytotoxicity call in experiment [1] and in experiment [2] was “inactive” in each case. Besides, the growth inhibition call in experiment [3] is “inactive”.

`C[C@@H]1CN([C@H](C)CO)C(=O)CCCn2nncc2CO[C@H]1CN(C)C(=O)Nc1ccc(N2CCCCC2)cc1`: the cytotoxicity call in experiment [1] and in experiment [2] was “inactive” throughout. In addition, in experiment [3], the growth inhibition call is “inactive”.

For the compound `Cc1noc(C)c1NC(=O)Nc1ccc2c(c1)CC(=O)N([C@@H](C)CO)C[C@H](C)[C@H](CN(C)S(C)(=O)=O)O2`, the cytotoxicity call in experiment [1] and in experiment [2] was “inactive” in each case. In experiment [3], the growth inhibition call was “inactive”.

Regarding `C[C@H](CO)N1C[C@H](C)[C@H](CN(C)C)OCCCC[C@H](C)Oc2ccc(NS(=O)(=O)c3cn(C)cn3)cc2C1=O`, the cytotoxicity call in experiment [1] and in experiment [2] was “inactive” in each case. Further, in experiment [3], the growth inhibition call is “inactive”.

Consider `COc1ccc2c3c([nH]c2c1)[C@@H](CO)N(C[C@]13CCN(CC1)C(=O)c1cccnc1)C(=O)c1cccnc1`, for which the cytotoxicity call in experiment [1] and in experiment [2] was “inactive” each time. Further, in experiment [3], the growth inhibition call was “inactive”.

On to `COc1ccc(CN2C[C@H](C)[C@@H](OC)CN(C)C(=O)c3ccc(NC(=O)c4nc5ccccc5s4)cc3OC[C@@H]2C)cc1`, for which the cytotoxicity call in experiment [1] and in experiment [2] was “inactive” throughout. Besides, the growth inhibition call in experiment [3] was “inactive”.

With `COc1ccc(S(=O)(=O)Nc2ccc3c(c2)C(=O)N([C@@H](C)CO)C[C@@H](C)[C@@H](CN(C)S(C)(=O)=O)OCCCC[C@@H](C)O3)cc1`, the cytotoxicity call in experiment [1] and in experiment [2] was “inactive” in each case. Also, the growth inhibition call in experiment [3] is “inactive”.

For the compound `C[C@@H]1CN([C@@H](C)CO)C(=O)c2cccc(NC(=O)C3CCCCC3)c2O[C@H]1CN(C)Cc1ccc(Cl)c(Cl)c1`, the cytotoxicity call in experiment [1] and in experiment [2] was “inactive” throughout. Further, in experiment [3], the growth inhibition call was “inactive”.

Regarding `COc1cc2c(cc1OC)C(=O)OC2`, the cytotoxicity call in experiment [1] and in experiment [2] was “inactive” in each case. In experiment [3], the growth inhibition call is “inactive”.

Turning to `C[C@@H]1CN([C@@H](C)CO)C(=O)c2cc(NC(=O)Nc3cccc4ccccc34)ccc2O[C@@H]1CN(C)Cc1ccncc1`, the cytotoxicity call in experiment [1] and in experiment [2] was “inactive” throughout. In addition, the growth inhibition call in experiment [3] was “inactive”.

As for `C[C@H]1CN([C@@H](C)CO)C(=O)Cc2cc(NC(=O)NC3CCCCC3)ccc2O[C@H]1CN(C)Cc1ccc(C(=O)Nc2ccccc2N)cc1`, in experiment [1], the cytotoxicity call was “inactive”. In addition, the cytotoxicity call in experiment [2] is “active”. Also, in experiment [3], the growth inhibition call is “inactive”.

On to `NCCCc1ccc2c(c1)OCO2`, for which the cytotoxicity call in experiment [1] and in experiment [2] was “inactive” throughout. Besides, the growth inhibition call in experiment [3] is “inactive”.

Take `C[C@H](CO)N1C[C@H](C)[C@H](CN(C)Cc2ccc(Oc3ccccc3)cc2)Oc2c(NC(=O)Nc3ccc(C(F)(F)F)cc3)cccc2C1=O`: the cytotoxicity call in experiment [1] is “active”. The cytotoxicity call in experiment [2] is “inactive”. For the same compound, in experiment [3], the growth inhibition call was “inactive”.

For `CC(C)NC(=O)Nc1ccc2c(c1)C(=O)N([C@@H](C)CO)C[C@H](C)[C@@H](CN(C)C(=O)NC1CCCCC1)O2`, the cytotoxicity call in experiment [1] and in experiment [2] was “inactive” throughout. In addition, the growth inhibition call in experiment [3] was “inactive”.

In the case of `C[C@@H]1CN([C@@H](C)CO)S(=O)(=O)c2ccc(C#CC(C)(C)O)cc2O[C@@H]1CN(C)C(=O)CN(C)C`, the cytotoxicity call in experiment [1] and in experiment [2] was “inactive” throughout. Besides, in experiment [3], the growth inhibition call was “inactive”.

For `COc1ccc(NC(=O)Nc2ccc3c(c2)C(=O)N([C@@H](C)CO)C[C@@H](C)[C@H](CN(C)S(=O)(=O)c2cccs2)OCCCC[C@@H](C)O3)cc1`, the cytotoxicity call in experiment [1] and in experiment [2] was “inactive” throughout. Moreover, the growth inhibition call in experiment [3] was “inactive”.

`COC(=O)C1=C[C@@H](O)[C@@H](O)[C@H](O[C@@H]2O[C@H](COC(=O)/C=C/c3ccccc3)[C@@H](O)[C@H](O)[C@H]2O)C1`: the cytotoxicity call in experiment [1] and in experiment [2] was “inactive” each time. The growth inhibition call in experiment [3] was “inactive”.

For `C=CC(C1=CC(=O)C(OC)=CC1=O)c1ccccc1` (centres undefined), in experiment [1], the cytotoxicity call is “inactive”. In addition, the cytotoxicity call in experiment [2] was “active”. Also, the growth inhibition call in experiment [3] was “inactive”.

For the compound `C[C@@H]1CN([C@@H](C)CO)C(=O)c2cccc(NS(=O)(=O)c3cn(C)cn3)c2O[C@@H]1CN(C)S(=O)(=O)c1ccc(Cl)cc1`, the cytotoxicity call in experiment [1] and in experiment [2] was “inactive” each time. In addition, the growth inhibition call in experiment [3] is “inactive”.
